Measured values published in paper PMC5865128 (Nature Communications, 2018).
Entries with a single value are a further part of the results.

Molecular target: naturally cleaved, untagged human BAFF, wild type (human)
Test: SEC; concentrated 293 T supernatants of naturally cleaved BAFF fractionated on Superdex 200 Increase; fractions blotted with anti-BAFF antibodies; oligomer seen in the fractions

stoichiometry N (3-mer eluting in fractions 15–16): 3 | stoichiometry N (60-mer eluting in fractions 9–10): 60
Substance: naturally cleaved, untagged human BAFF, wild type (ligand)
